Data taken from the supplement of paper PMC12230231.

tested on: SIVsab (simian immunodeficiency virus of sabaeus monkeys), single-cycle GFP reporter, in CRFK cells; experiment: enrichment among infected cells over input (fold); higher = weaker restriction; conditions: library: human / rhesus combinations
Experimental: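 Pools of CRFK cells expressing variants of the TRIM5α v1 loop were challenged with the single-cycle reporter, sorted by GFP and sequenced; mean of two replicates.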

Sequence	enrichment
MASGILLNVKEEVTCPICLELLTEPLSLHCGHSFCQACITANHKKSMLYKEGERSCPVCRISYQPENIQPNRHVANIVEKLREVKLSPEEGQKVDHCARHGEKLLLFCQEDSKVICWLCERSQEHRGHHTFLMEEVAQEYHVKLQTALEMLRQKQQEAEKLEADIREEKASWKIQIDYDKTNVSADFEQLREILDWEESNELQNLEKEEEDILKSLTKSETEMVQQTQYMRELISELEHRLQGSMMDLLQGVDGIIKRIENMTLKKPKTFHKNQRRVFRAPDLKGMLDMFRELTDARRYWVDVTLAPNNISHAVIAEDKRQVSSRNPQIMYGARGTLYTFPSFTNFNYCTGVLGSQSITSGKHYWEVDVSKKSAWILGVCAGFQSDAMYNIEQNENYQPKYGYWVIGLQEGVKYSVFQDGSSHTPFAPFIVPLSVIICPDRVGVFVDYEACTVSFFNITNHGFLIYKFSQCSFSKPVFPYLNPRKCTVPMTLCSPSS [rhesus TRIM5α, 332-344 = GARGTLYTFPSFT]	0.97 ± 0.48
MASGILLNVKEEVTCPICLELLTEPLSLHCGHSFCQACITANHKKSMLYKEGERSCPVCRISYQPENIQPNRHVANIVEKLREVKLSPEEGQKVDHCARHGEKLLLFCQEDSKVICWLCERSQEHRGHHTFLMEEVAQEYHVKLQTALEMLRQKQQEAEKLEADIREEKASWKIQIDYDKTNVSADFEQLREILDWEESNELQNLEKEEEDILKSLTKSETEMVQQTQYMRELISELEHRLQGSMMDLLQGVDGIIKRIENMTLKKPKTFHKNQRRVFRAPDLKGMLDMFRELTDARRYWVDVTLAPNNISHAVIAEDKRQVSSRNPQIMYGARGTLFTFQSFTNFNYCTGVLGSQSITSGKHYWEVDVSKKSAWILGVCAGFQSDAMYNIEQNENYQPKYGYWVIGLQEGVKYSVFQDGSSHTPFAPFIVPLSVIICPDRVGVFVDYEACTVSFFNITNHGFLIYKFSQCSFSKPVFPYLNPRKCTVPMTLCSPSS [rhesus TRIM5α, 332-344 = GARGTLFTFQSFT]	1.11 ± 0.09
MASGILLNVKEEVTCPICLELLTEPLSLHCGHSFCQACITANHKKSMLYKEGERSCPVCRISYQPENIQPNRHVANIVEKLREVKLSPEEGQKVDHCARHGEKLLLFCQEDSKVICWLCERSQEHRGHHTFLMEEVAQEYHVKLQTALEMLRQKQQEAEKLEADIREEKASWKIQIDYDKTNVSADFEQLREILDWEESNELQNLEKEEEDILKSLTKSETEMVQQTQYMRELISELEHRLQGSMMDLLQGVDGIIKRIENMTLKKPKTFHKNQRRVFRAPDLKGMLDMFRELTDARRYWVDVTLAPNNISHAVIAEDKRQVSSRNPQIMYGARGTRFTFQSLVNFNYCTGVLGSQSITSGKHYWEVDVSKKSAWILGVCAGFQSDAMYNIEQNENYQPKYGYWVIGLQEGVKYSVFQDGSSHTPFAPFIVPLSVIICPDRVGVFVDYEACTVSFFNITNHGFLIYKFSQCSFSKPVFPYLNPRKCTVPMTLCSPSS [rhesus TRIM5α, 332-344 = GARGTRFTFQSLV]	0.932 ± 0.2
MASGILLNVKEEVTCPICLELLTEPLSLHCGHSFCQACITANHKKSMLYKEGERSCPVCRISYQPENIQPNRHVANIVEKLREVKLSPEEGQKVDHCARHGEKLLLFCQEDSKVICWLCERSQEHRGHHTFLMEEVAQEYHVKLQTALEMLRQKQQEAEKLEADIREEKASWKIQIDYDKTNVSADFEQLREILDWEESNELQNLEKEEEDILKSLTKSETEMVQQTQYMRELISELEHRLQGSMMDLLQGVDGIIKRIENMTLKKPKTFHKNQRRVFRAPDLKGMLDMFRELTDARRYWVDVTLAPNNISHAVIAEDKRQVSSRNPQIMYGARGTRYTFPTLVNFNYCTGVLGSQSITSGKHYWEVDVSKKSAWILGVCAGFQSDAMYNIEQNENYQPKYGYWVIGLQEGVKYSVFQDGSSHTPFAPFIVPLSVIICPDRVGVFVDYEACTVSFFNITNHGFLIYKFSQCSFSKPVFPYLNPRKCTVPMTLCSPSS [rhesus TRIM5α, 332-344 = GARGTRYTFPTLV]	1.07 ± 0.59
MASGILLNVKEEVTCPICLELLTEPLSLHCGHSFCQACITANHKKSMLYKEGERSCPVCRISYQPENIQPNRHVANIVEKLREVKLSPEEGQKVDHCARHGEKLLLFCQEDSKVICWLCERSQEHRGHHTFLMEEVAQEYHVKLQTALEMLRQKQQEAEKLEADIREEKASWKIQIDYDKTNVSADFEQLREILDWEESNELQNLEKEEEDILKSLTKSETEMVQQTQYMRELISELEHRLQGSMMDLLQGVDGIIKRIENMTLKKPKTFHKNQRRVFRAPDLKGMLDMFRELTDARRYWVDVTLAPNNISHAVIAEDKRQVSSRNPQIMYQARGTLFTFPSFVNFNYCTGVLGSQSITSGKHYWEVDVSKKSAWILGVCAGFQSDAMYNIEQNENYQPKYGYWVIGLQEGVKYSVFQDGSSHTPFAPFIVPLSVIICPDRVGVFVDYEACTVSFFNITNHGFLIYKFSQCSFSKPVFPYLNPRKCTVPMTLCSPSS [rhesus TRIM5α, 332-344 = QARGTLFTFPSFV]	0.25 ± 0.28
MASGILLNVKEEVTCPICLELLTEPLSLHCGHSFCQACITANHKKSMLYKEGERSCPVCRISYQPENIQPNRHVANIVEKLREVKLSPEEGQKVDHCARHGEKLLLFCQEDSKVICWLCERSQEHRGHHTFLMEEVAQEYHVKLQTALEMLRQKQQEAEKLEADIREEKASWKIQIDYDKTNVSADFEQLREILDWEESNELQNLEKEEEDILKSLTKSETEMVQQTQYMRELISELEHRLQGSMMDLLQGVDGIIKRIENMTLKKPKTFHKNQRRVFRAPDLKGMLDMFRELTDARRYWVDVTLAPNNISHAVIAEDKRQVSSRNPQIMYGAPGTLFTFPTFVNFNYCTGVLGSQSITSGKHYWEVDVSKKSAWILGVCAGFQSDAMYNIEQNENYQPKYGYWVIGLQEGVKYSVFQDGSSHTPFAPFIVPLSVIICPDRVGVFVDYEACTVSFFNITNHGFLIYKFSQCSFSKPVFPYLNPRKCTVPMTLCSPSS [rhesus TRIM5α, 332-344 = GAPGTLFTFPTFV]	0.464 ± 0.59
MASGILLNVKEEVTCPICLELLTEPLSLHCGHSFCQACITANHKKSMLYKEGERSCPVCRISYQPENIQPNRHVANIVEKLREVKLSPEEGQKVDHCARHGEKLLLFCQEDSKVICWLCERSQEHRGHHTFLMEEVAQEYHVKLQTALEMLRQKQQEAEKLEADIREEKASWKIQIDYDKTNVSADFEQLREILDWEESNELQNLEKEEEDILKSLTKSETEMVQQTQYMRELISELEHRLQGSMMDLLQGVDGIIKRIENMTLKKPKTFHKNQRRVFRAPDLKGMLDMFRELTDARRYWVDVTLAPNNISHAVIAEDKRQVSSRNPQIMYGAPGTRFTFQTLVNFNYCTGVLGSQSITSGKHYWEVDVSKKSAWILGVCAGFQSDAMYNIEQNENYQPKYGYWVIGLQEGVKYSVFQDGSSHTPFAPFIVPLSVIICPDRVGVFVDYEACTVSFFNITNHGFLIYKFSQCSFSKPVFPYLNPRKCTVPMTLCSPSS [rhesus TRIM5α, 332-344 = GAPGTRFTFQTLV]	1.26 ± 0.47
MASGILLNVKEEVTCPICLELLTEPLSLHCGHSFCQACITANHKKSMLYKEGERSCPVCRISYQPENIQPNRHVANIVEKLREVKLSPEEGQKVDHCARHGEKLLLFCQEDSKVICWLCERSQEHRGHHTFLMEEVAQEYHVKLQTALEMLRQKQQEAEKLEADIREEKASWKIQIDYDKTNVSADFEQLREILDWEESNELQNLEKEEEDILKSLTKSETEMVQQTQYMRELISELEHRLQGSMMDLLQGVDGIIKRIENMTLKKPKTFHKNQRRVFRAPDLKGMLDMFRELTDARRYWVDVTLAPNNISHAVIAEDKRQVSSRNPQIMYGARGTRFTFPTLVNFNYCTGVLGSQSITSGKHYWEVDVSKKSAWILGVCAGFQSDAMYNIEQNENYQPKYGYWVIGLQEGVKYSVFQDGSSHTPFAPFIVPLSVIICPDRVGVFVDYEACTVSFFNITNHGFLIYKFSQCSFSKPVFPYLNPRKCTVPMTLCSPSS [rhesus TRIM5α, 332-344 = GARGTRFTFPTLV]	1.377 ± 0.013
MASGILLNVKEEVTCPICLELLTEPLSLHCGHSFCQACITANHKKSMLYKEGERSCPVCRISYQPENIQPNRHVANIVEKLREVKLSPEEGQKVDHCARHGEKLLLFCQEDSKVICWLCERSQEHRGHHTFLMEEVAQEYHVKLQTALEMLRQKQQEAEKLEADIREEKASWKIQIDYDKTNVSADFEQLREILDWEESNELQNLEKEEEDILKSLTKSETEMVQQTQYMRELISELEHRLQGSMMDLLQGVDGIIKRIENMTLKKPKTFHKNQRRVFRAPDLKGMLDMFRELTDARRYWVDVTLAPNNISHAVIAEDKRQVSSRNPQIMYQARGTRYTFPSLVNFNYCTGVLGSQSITSGKHYWEVDVSKKSAWILGVCAGFQSDAMYNIEQNENYQPKYGYWVIGLQEGVKYSVFQDGSSHTPFAPFIVPLSVIICPDRVGVFVDYEACTVSFFNITNHGFLIYKFSQCSFSKPVFPYLNPRKCTVPMTLCSPSS [rhesus TRIM5α, 332-344 = QARGTRYTFPSLV]	1.11 ± 0.81
MASGILLNVKEEVTCPICLELLTEPLSLHCGHSFCQACITANHKKSMLYKEGERSCPVCRISYQPENIQPNRHVANIVEKLREVKLSPEEGQKVDHCARHGEKLLLFCQEDSKVICWLCERSQEHRGHHTFLMEEVAQEYHVKLQTALEMLRQKQQEAEKLEADIREEKASWKIQIDYDKTNVSADFEQLREILDWEESNELQNLEKEEEDILKSLTKSETEMVQQTQYMRELISELEHRLQGSMMDLLQGVDGIIKRIENMTLKKPKTFHKNQRRVFRAPDLKGMLDMFRELTDARRYWVDVTLAPNNISHAVIAEDKRQVSSRNPQIMYQARGTLYTFPTFTNFNYCTGVLGSQSITSGKHYWEVDVSKKSAWILGVCAGFQSDAMYNIEQNENYQPKYGYWVIGLQEGVKYSVFQDGSSHTPFAPFIVPLSVIICPDRVGVFVDYEACTVSFFNITNHGFLIYKFSQCSFSKPVFPYLNPRKCTVPMTLCSPSS [rhesus TRIM5α, 332-344 = QARGTLYTFPTFT]	2.68 ± 0.63
MASGILLNVKEEVTCPICLELLTEPLSLHCGHSFCQACITANHKKSMLYKEGERSCPVCRISYQPENIQPNRHVANIVEKLREVKLSPEEGQKVDHCARHGEKLLLFCQEDSKVICWLCERSQEHRGHHTFLMEEVAQEYHVKLQTALEMLRQKQQEAEKLEADIREEKASWKIQIDYDKTNVSADFEQLREILDWEESNELQNLEKEEEDILKSLTKSETEMVQQTQYMRELISELEHRLQGSMMDLLQGVDGIIKRIENMTLKKPKTFHKNQRRVFRAPDLKGMLDMFRELTDARRYWVDVTLAPNNISHAVIAEDKRQVSSRNPQIMYGAPGTRYTFQSLTNFNYCTGVLGSQSITSGKHYWEVDVSKKSAWILGVCAGFQSDAMYNIEQNENYQPKYGYWVIGLQEGVKYSVFQDGSSHTPFAPFIVPLSVIICPDRVGVFVDYEACTVSFFNITNHGFLIYKFSQCSFSKPVFPYLNPRKCTVPMTLCSPSS [rhesus TRIM5α, 332-344 = GAPGTRYTFQSLT]	1.52 ± 0.86
MASGILLNVKEEVTCPICLELLTEPLSLHCGHSFCQACITANHKKSMLYKEGERSCPVCRISYQPENIQPNRHVANIVEKLREVKLSPEEGQKVDHCARHGEKLLLFCQEDSKVICWLCERSQEHRGHHTFLMEEVAQEYHVKLQTALEMLRQKQQEAEKLEADIREEKASWKIQIDYDKTNVSADFEQLREILDWEESNELQNLEKEEEDILKSLTKSETEMVQQTQYMRELISELEHRLQGSMMDLLQGVDGIIKRIENMTLKKPKTFHKNQRRVFRAPDLKGMLDMFRELTDARRYWVDVTLAPNNISHAVIAEDKRQVSSRNPQIMYGARGTRFTFQTFVNFNYCTGVLGSQSITSGKHYWEVDVSKKSAWILGVCAGFQSDAMYNIEQNENYQPKYGYWVIGLQEGVKYSVFQDGSSHTPFAPFIVPLSVIICPDRVGVFVDYEACTVSFFNITNHGFLIYKFSQCSFSKPVFPYLNPRKCTVPMTLCSPSS [rhesus TRIM5α, 332-344 = GARGTRFTFQTFV]	1.11 ± 0.66

± gives the standard deviation of the averaged measurements. Restriction of a single-cycle SIVsab GFP reporter by TRIM5α v1-loop variants in CRFK cells. Human variants: read share among cells still uninfected after two challenges over input, higher = gained restriction. Rhesus variants: share among infected cells over input, higher = lost restriction. Reporter dose not given per row. No active / inactive call per row; the paper calls a change when both replicates lie above its controls (mean + 2 SD of stop or wild-type variants, or the top frameshift score). Residues outside the varied loop are taken from Swiss-Prot. The paper reads the human single-substitution scores as noise; they and the rhesus combinations repeat poorly (rank correlation 0.3 to 0.4), indel scores repeat only for the top variants, rhesus substitutions well (0.9).
